Data taken from PubChem BioAssay AID488969 (Vanderbilt High Throughput Screening Facility, 2010).
Over roughly 110,000 compounds, “z-score” has its median near -0.1; the highest 2% begin near 2. Some of the results follow. Calls of active or inactive are those of the source.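 Rule for the calls: active = z-score in the third read window above 3 or below -3; inactive = the rest.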

What follows are compounds tested against Metabotropic glutamate receptor 8 (Rattus norvegicus) (UniProt P70579) (assay: mGluR8 Gi/Go-coupled signaling modulation – cell-based, rat, thallium flux, HTS, primary screen (AID 488969)). Conditions: HEK293 rat mGluR8, GIRK (G protein-gated inwardly rectifying potassium channel) thallium flux, FluoZin2; at 10 µM; stronger effect = higher value; submaximal glutamate (EC20) added with thallium.
UniProt P70579, sequence (P70579 whole entry, looked up): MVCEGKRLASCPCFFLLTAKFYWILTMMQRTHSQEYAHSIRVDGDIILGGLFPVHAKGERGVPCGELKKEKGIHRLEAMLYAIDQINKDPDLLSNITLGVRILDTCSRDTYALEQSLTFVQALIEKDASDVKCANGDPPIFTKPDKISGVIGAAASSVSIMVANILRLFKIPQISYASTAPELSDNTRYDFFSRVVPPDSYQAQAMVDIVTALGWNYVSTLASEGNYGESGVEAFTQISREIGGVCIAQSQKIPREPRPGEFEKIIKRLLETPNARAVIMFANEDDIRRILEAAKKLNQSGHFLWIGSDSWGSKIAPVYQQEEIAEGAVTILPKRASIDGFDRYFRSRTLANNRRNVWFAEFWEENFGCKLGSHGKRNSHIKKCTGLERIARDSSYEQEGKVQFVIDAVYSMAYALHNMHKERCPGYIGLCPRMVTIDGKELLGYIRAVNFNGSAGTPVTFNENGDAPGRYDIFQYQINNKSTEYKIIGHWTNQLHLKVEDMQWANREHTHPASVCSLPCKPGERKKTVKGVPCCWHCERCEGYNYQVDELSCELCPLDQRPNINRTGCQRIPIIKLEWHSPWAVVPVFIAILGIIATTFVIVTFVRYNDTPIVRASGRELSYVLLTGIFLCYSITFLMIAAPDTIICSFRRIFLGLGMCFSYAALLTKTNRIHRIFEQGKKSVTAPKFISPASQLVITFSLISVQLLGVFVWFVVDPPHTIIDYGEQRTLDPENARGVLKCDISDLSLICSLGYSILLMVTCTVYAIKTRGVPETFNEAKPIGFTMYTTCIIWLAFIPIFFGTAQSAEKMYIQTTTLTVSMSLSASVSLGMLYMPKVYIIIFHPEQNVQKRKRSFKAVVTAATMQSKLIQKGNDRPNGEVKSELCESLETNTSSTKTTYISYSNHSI

| SMILES | z-score |
| --- | --- |
| COc1ccccc1-n1c(-c2cccnc2)n[nH]c1=S | -0.406 |
| COc1ccc(C2(C(=O)Nc3ccc(C(=O)N4CCOCC4)cc3)CCOCC2)cc1 | -0.173 |
| Cc1ccc2cc(CNC(C)(C)C)c(=O)[nH]c2c1 | -0.312 |
| COc1ccc(/C=N/Nc2ccc([N+](=O)[O-])cc2S(=O)(=O)N2CCN(C)CC2)cc1 | -0.00921 |
| CC(=O)Nc1nc(C)nc(C)c1C(C)=O | 0.0408 |
| Cc1ccc(CNc2ccc(O)cc2)cc1 | -0.175 |
| Cc1cnc(C(=O)Nc2ccccc2-c2nnn(CC(=O)NC3CCCC3)n2)cn1 | 0.0552 |
| O=C(NC1CC1)c1ccc(F)cc1Cl | -0.142 |
| CCCc1cc(C(=O)NCCc2ccc(OC)c(OC)c2)no1 | 0.182 |
| O=C(CNc1ccc(Oc2ccccc2)cc1)N1CCOCC1 | 0.526 |
| COC(=O)C(C)n1nc(C)n(-c2ccc(C)cc2)c1=O (stereo not given) | -0.0525 |
| CCOC(=O)N1CCN(C(=O)c2ccccc2-c2ccccc2)CC1 | 0.205 |
| Cc1cccc(OCc2nnc(SCc3nc4cc(C(F)(F)F)ccc4c(=O)[nH]3)o2)c1 | 0.668 |
| COc1cc(-c2nnc(CSc3nnc(Nc4ccc(Oc5ccccc5)cc4)s3)o2)cc(OC)c1OC | 0.138 |
| CC(C)(C)NC(=O)CSc1nc2ccccc2n1-c1ccccc1 | -0.594 |
| Cc1[nH]c(=O)[nH]c(=O)c1S(=O)(=O)N1CCCC(C(=O)N2CCN(c3ccccc3Cl)CC2)C1 (stereo not given) | -0.0397 |
| CCn1c(SCC(=O)c2cc(C)n(CC3CCCO3)c2C)nc2ccccc21 (stereo not given) | -0.499 |
| O=C(Nc1nc2c(s1)CCCC2)c1cccs1 | 0.315 |
| COc1ccc(C2=[N+]([O-])C(C)(C)N(O)C2C)cc1 (stereo not given) | 0.368 |
| O=C(CCCN1C(=O)c2ccccc2C1=O)Nc1cccnc1 | 0.11 |
| COC(=O)c1ccccc1NC(=O)Nc1cccs1 | -0.0344 |
| COC(=O)c1ccccc1OCC(=O)N1CCN(c2ccc(OC)cc2)CC1 | 0.0991 |

| SMILES | z-score |
| --- | --- |
| CC(C)OC(=O)CSc1nc(N)c(C#N)c(-c2ccco2)c1C#N | 0.0896 |
| Cc1ccc(O)c(C2=NOC(O)(C(F)(F)C(F)F)C2)c1 (stereo not given) | 0.805 |
| C=CCn1c(COc2ccc3c(c2)CCCC3)nnc1SCC(=O)Nc1cccc(SC)c1 | -0.0125 |
| CC(NS(=O)(=O)c1ccc(CCC(=O)NCC2CCCO2)cc1)c1ccccc1 (stereo not given) | -0.015 |
| CCc1cc2c(=O)[nH]c(N3CCOCC3)nc2s1 | 0.05 |
| O=c1[nH]nc(CNc2ccc(O)cc2)c2ccccc12 | -0.137 |
| COCCNC(=O)CSCc1c(F)cccc1Cl | -0.309 |
| NC1=CC(=O)c2cccc3cccc1c23 | 0.0608 |
| COc1cc(/C=C/C(=O)N2CCN(CC(O)COc3ccccc3)CC2)cc(OC)c1OC (stereo not given) | -0.413 |
| COc1cccc(-c2ccc(=O)n(CC(=O)NCCN3CCOCC3)n2)c1 | 0.258 |
| Cc1ccc(S(=O)(=O)N2CCC(C(=O)N[C@@H](C)C(=O)Nc3ccc4c(c3)OCO4)CC2)cc1 | 0.0642 |
| CCCCn1c(-c2ccc([N+](=O)[O-])cc2)n[nH]c1=S | -0.0803 |
| CN1C(=O)/C(=C/c2ccc(-c3ccccc3[N+](=O)[O-])o2)SC1=Nc1ccc(Cl)c(C(=O)O)c1 | -0.786 |
| CC(=O)c1ccc(OCC(C)C)c(Cc2c(O)nc(N)[nH]c2=O)c1 | -0.204 |
| Cc1cccc(NC(=S)NNC(=O)c2csc3c2CCCC3)c1 | active: 14 |
| COCCN1C(=O)C(CC(=O)Nc2ccccc2)SC1=Nc1ccc(OC)cc1 (stereo not given) | -0.209 |
| CC(=O)Nc1ccc(S(=O)(=O)NCc2cn3c(C)csc3n2)cc1 | 0.309 |
| COc1ccccc1OCC(=O)NCCc1nc2ccccc2[nH]1 | -0.987 |
| CCOc1ccc2nc(SCC(=O)N3c4ccccc4Sc4ccccc43)c(C#N)cc2c1 | -0.218 |
| COc1ccc(CNC(=O)CCSCc2cccc(Cl)c2)c(OC)c1 | -0.242 |
| Cc1ccc2nsnc2c1NC(=S)NC(=O)c1ccco1 | active: 6.75 |
| O=C(CSc1ncnc2c1oc1ccccc12)c1cccs1 | 0.82 |

| SMILES | z-score |
| --- | --- |
| C=CCN(CC=C)Cc1c(O)ccc2c1oc(=O)c1ccccc12 | -0.229 |
| Cc1nc(SCC(=O)NCCc2ccccc2)c2oc3ccccc3c2n1 | 0.151 |
| O=C(c1ccco1)n1nc(-c2ccc(Cl)cc2)nc1NCc1ccco1 | 0.0695 |
| COCCn1c(=S)[nH]c2cc(C(=O)N3CCC(C(N)=O)(N4CCCCC4)CC3)ccc2c1=O | -0.286 |
| O=C(CN1C(=O)COc2ccccc21)NCCN1CCc2ccccc2C1 | -0.0186 |
| Cc1scc(C(=O)Nn2cnnc2)c1-c1ccccc1 | -0.343 |
| Cc1cccc(C(=O)Nc2cc(C)ccc2NC(=O)COc2ccccc2)c1 | -0.561 |
| CCOC(=O)c1ccc(NC(=O)CSc2nnc(COc3ccccc3)n2C)cc1 | -0.177 |
| Cc1ccccc1-c1nc(CS(=O)(=O)CC(=O)NCc2ccccc2)c(C)o1 | -0.0658 |
| COc1ccccc1C(=O)N1CCNC(=O)C1CC(=O)Nc1ccc(Cl)cc1 (stereo not given) | -0.0129 |
| CCOC(=O)c1c(C2CC2)csc1NC(C)=O | -0.0297 |
| COc1ccc(CCN=C(N)NS(=O)(=O)c2ccc(C)cc2)cc1 | -0.247 |
| Cc1cc2c(cc(C(=O)OCC(=O)NCc3cccs3)n2C(C)C)o1 | -0.794 |
| CC(=O)Nc1nc2ccccc2n1CCOc1ccccc1 | 0.0425 |
| CCc1nnc(NC(=O)c2ccc(S(=O)(=O)N3CCOCC3)cc2)s1 | -0.164 |
| O=C(c1cccc2cccc(O)c12)N1CCCCC1 | -0.615 |
| Cc1ccc(-n2c(-c3cccc(C)c3)n[nH]c2=S)cc1 | 0.482 |
| O=C(NC1CCCCC1)c1ccc(COCC(F)(F)F)o1 | -1.49 |
| O=S(=O)(c1cnc(Cl)c(Br)c1)N1CCCCCC1 | -0.292 |
| O=C(O)CC(C(=O)OC1CCCCC1)N1CCOCC1 (stereo not given) | 0.122 |
| COC(=O)c1ccc(C(=O)OC)c(NC(=O)COC(=O)C2CC2C)c1 (stereo not given) | -0.245 |
| CCn1c(=N)n(CC(=O)C(C)(C)C)c2ccccc21 | 0.023 |

| SMILES | z-score |
| --- | --- |
| COc1ccc(C(=O)NC(C(=O)NCC(=O)Nc2c(C)cccc2C)C(C)C)cc1 (stereo not given) | -0.0633 |
| C#CCN1C(=O)C(O)(CC(=O)c2ccc(OC)c(OC)c2)c2ccccc21 (stereo not given) | -0.0381 |
| COc1ccc(C(=O)COC(=O)C(CC(C)C)N2C(=O)c3ccccc3C2=O)cc1 (stereo not given) | -0.0904 |
| COC(=O)C1=C(C)NC(C)=C(C(=O)OC)C1C(=O)OCC(=O)N1c2ccccc2CC1C (stereo not given) | 0.131 |
| Cc1c(N2C(=O)/C(=C/c3ccccc3)SC2=S)c(=O)n(-c2ccccc2)n1C | -0.226 |
| Cc1nc(C)c(-c2csc(NCCc3ccccc3)n2)s1 | -0.396 |
| OC(CNCCc1ccc(C(F)(F)F)cc1)COc1ccc2ccccc2c1 (stereo not given) | 0.0956 |
| C=CCc1ccc(OCCCOc2ccc(C)c(C)c2)c(OC)c1 | -0.104 |
| CC(NC(=O)COc1ccccc1)C1COc2ccccc2O1 (stereo not given) | -0.67 |
| CCc1ccc(-n2c(Cn3nc(C(F)(F)F)cc3C)n[nH]c2=S)cc1 | -0.112 |
| CC(C)OC(=O)CCc1nc2ccccc2[nH]c1=O | 1.33 |
| CCc1cc(-c2n[nH]c(=S)n2Cc2ccccc2)cs1 | 0.464 |
| Cc1ccc(-c2csc3ncnc(SCC(=O)c4ccc5c(c4)OCCO5)c23)cc1 | -0.0954 |
| Cc1ccc(C(C)C)c(OCCN)c1 | 0.794 |
| CCOc1cc(S(=O)(=O)Nc2ccc(Cl)cn2)ccc1Cl | 0.279 |
| CCOC(=O)C1CCN(C(=O)CN(c2ccc(OC)cc2)S(=O)(=O)c2c(C)nn(C)c2C)CC1 | -0.304 |
| CS(=O)(=O)N(CC(=O)N1CCCC1)c1ccc2c(c1)OCCO2 | 0.0431 |
| CCOC(=O)C(CC)/C(C)=N/NC(=O)c1ccccc1[N+](=O)[O-] (stereo not given) | -0.147 |
| O=C(NCCOc1ccccc1)c1ccccc1 | 0.0322 |
| CCCCNC(=S)Nc1ccccc1F | 0.54 |
| O=Nc1c(O)n(Cc2cccc(Cl)c2)c2ccccc12 | -0.611 |
| CC1(C)Cc2c(C#N)c(OCC(=O)c3ccccc3)nc(-c3ccoc3)c2CO1 | -0.0896 |

| SMILES | z-score |
| --- | --- |
| NC(=O)C1CCN(C2CC(=O)N(c3ccc(F)c(Cl)c3)C2=O)CC1 (stereo not given) | -0.0189 |
| COC(=O)c1cc(OC)nc2c1c(=O)n(C)c(=O)n2C | -0.285 |
| COc1cc([N+](=O)[O-])ccc1NC(=O)CCN1C(=O)C2C3CCC(C3)C2C1=O (stereo not given) | 0.312 |
| COC(=O)c1c(C)oc2ccc(N(C(=O)c3ccncc3)S(=O)(=O)c3ccc4ccccc4c3)cc12 | -0.0657 |
| CCOc1cc(C2C(C(=O)OC)=C(C)N=C3SCCC(=O)N32)ccc1OC(C)=O (stereo not given) | -0.187 |
| CCOc1cccc(N2C(=O)CC(N3CCN(c4ccc(S(=O)(=O)CC)cc4)CC3)C2=O)c1 (stereo not given) | 0.236 |
| N=c1cc(C2(O)CCCCC2)n2c(nc3ccccc32)s1 | 0.286 |
| Fc1ccc(Cn2cnc3ccccc32)cc1 | -0.209 |
| CCOc1ccc(OCC)c(-c2c(=O)n(OCc3ccc(Cl)cc3)c3ccccc3[n+]2[O-])c1 | -0.24 |
| CCOP(=O)(OCC)C(Nc1ccccn1)c1ccccc1 (stereo not given) | -0.0386 |
| COc1ccc(CCNC(=O)COc2ccc(S(=O)(=O)NC(C)C)cc2Cl)cc1OC | -0.0477 |
| COC(=O)C1=C(O)CSC1=Nc1ccc(C)cc1 | -0.345 |
| Cc1cc(NC(=O)COc2ccc(N(C)S(=O)(=O)c3ccccc3)cc2)no1 | 1.75 |
| c1ccc(-c2cc3c(-n4cccc4)ncnc3o2)cc1 | -0.503 |
| Cc1ccc(-c2cnc(NC(=O)CCC(=O)N(C)Cc3ccccc3)n2C)cc1 | -0.765 |
| Fc1ccccc1NC(=S)NN(Cc1ccccc1)c1ccccc1 | active: 5.03 |
| CCOC(=O)c1c(C)[nH]c(C(=O)CSc2nnc(-c3ccncc3)n2CC)c1C | -0.926 |
| CCCOc1c(Br)cc(C2C3=C(CCCC3=O)N(C)C3=C2C(=O)CCC3)cc1OC | -0.905 |
| COc1ccc(N2CCn3c2nc2c3c(=O)n(CCCc3ccccc3)c(=O)n2C)c(OC)c1 | -1.93 |
| NC(=O)c1ccsc1NC(=O)COC(=O)c1ccccc1NCc1ccco1 | -0.663 |
| COc1ccccc1CNc1nc2ccccc2n1CCN1CCCCC1 | 0.582 |
| CCOC(=O)C(=CNc1ccc2c(c1)nnn2-c1ccc(Cl)cc1)C(=O)OCC | -0.751 |
